The RNAGym collection of RNA variant scans (doi:10.1073/pnas.2313332121)
This sample is rich in variants without activity.

B1: TPR 5TU (parent)
chain: GGAUCUUCUCGAUCUAACAAAAAAGACAAAUCUGCCACAAAGCUUGAGAGCAUCUUCGGAUGCAGAGGCGGCAGCCUUCGGUGGCGCGAUAGCGCCAACGUUCUCAACUAUGACACGCAAAACGCGUGCUCCGUUGAAUGGAGUUUAUCAUG

Variants of: B1
Test: polymerase ribozyme fitness, log enrichment relative to wild type (log ratio); higher = more active; in vitro selection for triplet polymerase activity
Procedure, shortened: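 After PCR construction and transcription, each subunit's mutant library from a heterodimeric triplet polymerase ribozyme was annealed with a biotinylated primer, the partner subunit and triplets. Incubation was frozen, at −7 °C, and extended constructs were gel-excised, bound to streptavidin beads and amplified by RT-PCR, in one selection round done in triplicate. Fitness is the logarithm of a genotype's enrichment divided by that of the wild type, from inverse-variance-weighted replicate averages of Illumina-sequenced inputs and outputs. The base of the logarithm is 2, and genotypes needed ≥10 input reads and ≥1 read per output.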

Row | Variant | polymerase ribozyme fitness (log ratio)
1 | G86C G94C C116G | ≤ -4.2
2 | C85G C93G | -3.68
3 | C87G A97U G100C | ≤ -4.2
4 | G88A A106G | -3.55
5 | G86C C105U | -1.5
6 | G92A C108U | ≤ -4.2
7 | G92U C103U C108G G133C | ≤ -4.2
8 | C87G U134A | ≤ -4.2
9 | C85U G117U | 0.675
10 | C93A C118U C125A A142G | ≤ -4.2
11 | G92U A115C A119U G140C | ≤ -4.2
12 | A91C U134A | ≤ -4.2
13 | C85G G100U G141U | ≤ -4.2
14 | C87A U146A | ≤ -4.2
15 | C85A U134G | -3.6
16 | C87G G88U G143U | ≤ -4.2
17 | C85G C105G | ≤ -4.2
18 | C87G C105U C114G G143A | ≤ -4.2
19 | G88A G92A C116A A120U C131G A147G | ≤ -4.2
20 | C85G C96G | -3.49
21 | C85U C103U | -2.17
22 | G92A C96G C131G | ≤ -4.2
23 | A91G C123G A150C | ≤ -4.2
24 | C93G C114G A122U A150G | ≤ -4.2

Row | Variant | polymerase ribozyme fitness (log ratio)
25 | G86U C149A | ≤ -4.2
26 | A91C A113G A138U | ≤ -4.2
27 | C85U G143A | 0.273
28 | C85A U109G | -1.33
29 | G86A A89U | -1.96
30 | C93G U145G | -2.53
31 | C93U U102C C105U C116G G152U | ≤ -4.2
32 | A91U U130G | ≤ -4.2
33 | A91G C114G G124A | ≤ -4.2
34 | C85G C87A C95A U134G A142G | ≤ -4.2
35 | A89U G94C A98G A150G | -2.68
36 | U90A A106G C129A | ≤ -4.2
37 | G86C U101G U134A | ≤ -4.2
38 | C93G C108A A115G | ≤ -4.2
39 | C87U C129A | -2.76
40 | G92C U111C | -3.45
41 | G88C C116U | -3.99
42 | G88U U127A C129U | ≤ -4.2
43 | C85U C116G | -0.942
44 | G92A A107G | ≤ -4.2
45 | G92A A115C | -3.48
46 | A91U G140U | ≤ -4.2
47 | C87A C105U A122U | ≤ -4.2
48 | C87A A122C G136U | ≤ -4.2

Row | Variant | polymerase ribozyme fitness (log ratio)
49 | A89U G94C C114A U127A | ≤ -4.2
50 | C85U C108A | ≤ -4.2
51 | C87A G88A G117A A119G | ≤ -4.2
52 | C85U C125G | -0.638
53 | G92C G124U G152U | -3.69
54 | C87U C96U C125U U144A | -2.68
55 | A91C C96G | ≤ -4.2
56 | G86U C87U A91C G117C | ≤ -4.2
57 | C87G U109A A122C U144A | ≤ -4.2
58 | A91U C95U | ≤ -4.2
59 | G92U C93U A138C | ≤ -4.2
60 | C93A A106C A110C G112C C131U G133U U134A U145G | ≤ -4.2
61 | C87U C105G U130G | ≤ -4.2
62 | G86A U102G | -4.05
63 | C85U U101A | -0.791
64 | C93A C108A | ≤ -4.2
65 | C87G G112U | ≤ -4.2
66 | C85U A115U G140A G152C | ≤ -4.2
67 | C93U C103A C105U A120G U134C | -3.94
68 | G86C A89G C95A A113G C114G A142U | ≤ -4.2
69 | C87A G124A C125G | ≤ -4.2
70 | C85G U101C U104G C131G | ≤ -4.2
71 | C93A A107G U146C | ≤ -4.2
72 | C93G C116U | -3.07

Row | Variant | polymerase ribozyme fitness (log ratio)
73 | A91G C95G | -3.67
74 | C85U C114G G128A | ≤ -4.2
75 | C87U C99U A137U | ≤ -4.2
76 | G88C G143C | -3.92
77 | G88U C103G C105A U109A A142C U148C | ≤ -4.2
78 | A89G G94A C105G G112C | ≤ -4.2
79 | C87U U102C | -1.21
80 | G86A G88U A137U | ≤ -4.2
81 | C93G C149A | ≤ -4.2
82 | U90G C129A C132G | ≤ -4.2
83 | C87A U101G G124A A142C | -4.02
84 | C85U A89U A107C A121G | ≤ -4.2
85 | C85U A142G U145C C149A | ≤ -4.2
86 | G86U C87A G143C U144C U146A | ≤ -4.2
87 | A91U G100U | ≤ -4.2
88 | C93U C125A | -2.69
89 | C87U C118G A142U G152U | ≤ -4.2
90 | C93U A106C C129G G143A | -3.64
91 | C87U A142C U148A | ≤ -4.2
92 | C87U A137G U148C | -3.87
93 | A91U G92U C132A | ≤ -4.2
94 | G92A U135A U145C | -3.89
95 | U90A C93A | ≤ -4.2
96 | C85U G100U A121C G124A C125G G136A A142G G152U | ≤ -4.2

Row | Variant | polymerase ribozyme fitness (log ratio)
97 | A91U C95U U109G A121G G136C G143A | ≤ -4.2
98 | U90A G141C | ≤ -4.2
99 | G92C C105U | -0.217
100 | G92A A150C | ≤ -4.2
101 | A91G U139C | ≤ -4.2
102 | C93U G140U | -3.59
103 | A91U A121C | ≤ -4.2
104 | C87G G92C C125U U127G U135G G141C | ≤ -4.2
105 | A91U A97U C132U | ≤ -4.2
106 | G86U C105A | -2.68
107 | C85A U111A | ≤ -4.2
108 | C85G G94A C95G U135A | -3.95
109 | C85U G94U A107G C114U A120U C149U | ≤ -4.2
110 | A91U C93G G112A G128U G136A U148A | ≤ -4.2
111 | A91G G92A C125G C129G A137G | ≤ -4.2
112 | U90A C93G A142C | ≤ -4.2
113 | G92A U101G A113G A122U U146A | ≤ -4.2
114 | C93A C96A | -3.78
115 | C93G U111G | ≤ -4.2
116 | C93A U102C C105A C125G G143U U144A | ≤ -4.2
117 | G86A A150G | -3.09
118 | A89U U151C | ≤ -4.2
119 | C87A G117A | ≤ -4.2
120 | C93U C116U C123A | -1.16

Row | Variant | polymerase ribozyme fitness (log ratio)
121 | C85U G128U C131U | -2.93
122 | C85G C131G | ≤ -4.2
123 | G88C A106C C123A G126C A138G | ≤ -4.2
124 | C87G G143C | ≤ -4.2
125 | A91G G140U | -4.19
126 | C87A G117U U135C | ≤ -4.2
127 | G92A U127A A150U | -4.1
128 | C87A G92A G140U | ≤ -4.2
129 | G88U C116U A137C C149G | ≤ -4.2
130 | C93U A107G G141U | ≤ -4.2
131 | G88C U151A | ≤ -4.2
132 | C93G C108U C116G | ≤ -4.2
133 | G92A U104A A106C C108A | ≤ -4.2
134 | A91U C118A U139C | ≤ -4.2
135 | C87G G133U | ≤ -4.2
136 | A91C A107G | ≤ -4.2
137 | C93G G152U | ≤ -4.2
138 | U90G C96A G133A U144A | ≤ -4.2
139 | G86U U90G U139A | ≤ -4.2
140 | G88C G100U A110C | ≤ -4.2
141 | G92U A106G | -0.318
142 | C85U A122C | -1.06
143 | C87A U90C G94A | ≤ -4.2
144 | G92U C95U A137U | -4.11

Row | Variant | polymerase ribozyme fitness (log ratio)
145 | G88U A98G G117A | ≤ -4.2
146 | C85U A91C U102C | ≤ -4.2
147 | C85U G133U | -2.28
148 | G92U C93U C95A C99A U101G | ≤ -4.2
149 | G88A U144G | -3.35
150 | A91G C118U A121U A122U G124A | -3.56
151 | C87G G94C C132G | ≤ -4.2
152 | A91G G140C U148A U151C | ≤ -4.2
153 | G86A G94C C132U G141C | ≤ -4.2
154 | C93U G143C | -3.12
155 | U90C C93U G128C | ≤ -4.2
156 | C87A G100A | ≤ -4.2
157 | C85G G128C G143A U144C U146A | ≤ -4.2
158 | A89G A122C | -1.77
159 | C85U A91C U102G C105U C108G C131U | ≤ -4.2
160 | U90C G94A C123A G141U | ≤ -4.2
161 | A89G C99G U102A C123G U135C U145G | ≤ -4.2
162 | G88C C105G G128C A142C | ≤ -4.2
163 | G88U U130A A147C | ≤ -4.2
164 | G86U A107G G143C U151A | ≤ -4.2
165 | C93U A107U | -4.04
166 | A91U C95U C129G | ≤ -4.2
167 | U90G G92A | ≤ -4.2
